Results on 2 proteins are retold here after publication PMC3900686, “Mechanisms of the Scaffold Subunit in Facilitating Protein Phosphatase 2A Methylation” (PLoS ONE, 2014).

This data set deals with the molecule itself. Kind of data set: SEC; gel filtration chromatography of wild type and mutant A-subunits. A general note: SEC sorts molecules by how far they enter the pores of the column.

B1: A-subunit mutant A_D61A/E62K (natural protein)
chain: not shown
notes: PP2A scaffold Aα-subunit, double mutant D61A/E62K; Probably made as the wild-type A-subunit
For the protein B1, the binding result is “binds”.

B2: A-subunit mutant A_E100A/E101K (natural protein)
chain: not shown
notes: PP2A scaffold Aα-subunit, double mutant E100A/E101K; Probably made as the wild-type A-subunit
For the protein B2, the binding result was “binds”.
